Test results as given in the BET-seq Pho4 binding data (Le et al. 2018).
Some of the results follow. The energies were worked out here from pooled read counts, against the library average; single values are noisy.

Molecular target: T1, Pho4 (S. cerevisiae) (UniProt P07270)
T1 sequence: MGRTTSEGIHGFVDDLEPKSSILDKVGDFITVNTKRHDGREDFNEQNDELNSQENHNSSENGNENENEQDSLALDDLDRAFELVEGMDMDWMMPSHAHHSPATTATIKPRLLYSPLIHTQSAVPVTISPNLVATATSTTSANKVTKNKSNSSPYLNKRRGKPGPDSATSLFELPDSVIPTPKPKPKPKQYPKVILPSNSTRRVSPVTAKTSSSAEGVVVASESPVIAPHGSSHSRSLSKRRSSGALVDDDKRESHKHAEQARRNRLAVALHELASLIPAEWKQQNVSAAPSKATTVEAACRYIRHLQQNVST
Assay: relative binding free energy (BET-seq); higher = weaker binding
Settings: reference: library average

Row | Sequence | relative binding free energy [kcal/mol]
1 | TTGTGCACGTGTAACG | 0.13
2 | TTAGGCACGTGTTGGC | 0.03
3 | TGGGTCACGTGCTGGT | 0.07
4 | TATATCACGTGGTAGT | 0.09
5 | AATGGCACGTGATGTT | 0.07
6 | GGTGGCACGTGACTAG | -0.01
7 | AGGTCCACGTGTTATT | 0.08
8 | TATTTCACGTGTATTA | 0.18
9 | TATGGCACGTGGAGGC | -0.07
10 | GCTGGCACGTGCGTGT | -0.15
11 | GGGGCCACGTGGTTTC | 0.06
12 | GCAAGCACGTGTTGTG | 0.02
13 | GTCTGCACGTGAGTGG | 0.23
14 | ATGAGCACGTGGAGGG | -0.2
15 | TAGTTCACGTGGTGGT | 0.31
16 | TGCGGCACGTGGAATG | -0.01
17 | TGTGCCACGTGGGGTG | -0.3
18 | AGGGGCACGTGCTGCG | -0.32
19 | GAACACACGTGTGTGG | 0.24
20 | AGAGTCACGTGGGTCT | -0.02
21 | AGTATCACGTGGAATT | 0.31
22 | TGAGGCACGTGGTACA | -0.19
23 | AGTGACACGTGGGCAT | -0.25

Row | Sequence | relative binding free energy [kcal/mol]
24 | ATCAACACGTGGGCGG | 0.02
25 | TGTTGCACGTGTTATA | -0.01
26 | GAATTCACGTGGTTAT | 0.25
27 | TTTGTCACGTGTGTCC | 0.07
28 | TAGAACACGTGAGGGT | 0.27
29 | ATGTTCACGTGAAAGT | 0.46
30 | ATGGACACGTGCATTG | 0
31 | TAGCGCACGTGGGATG | -0.24
32 | AGTTTCACGTGCGGTG | 0.31
33 | TGTAGCACGTGTGCCG | 0.04
34 | GGTAGCACGTGCGAGG | -0.13
35 | AGCTTCACGTGGGTGA | -0.03
36 | TAGTACACGTGAAAGG | 0.14
37 | AGAGACACGTGCTGGG | 0.02
38 | GAGGACACGTGTAGTG | 0.15
39 | TTTGGCACGTGTCAAG | -0.03
40 | GTAAGCACGTGGCAGG | -0.15
41 | TAATTCACGTGGTAGC | 0.16
42 | GGTTGCACGTGGGACA | -0.09
43 | TAAGGCACGTGAGGTG | 0.11
44 | AGGCACACGTGGGTAA | -0.01
45 | ATTCGCACGTGATGAT | 0.11
46 | TAAGGCACGTGGTATT | -0.26

Row | Sequence | relative binding free energy [kcal/mol]
47 | GGCATCACGTGGGAGG | 0.16
48 | GTGTTCACGTGCTGGC | 0.19
49 | TTAGTCACGTGACTTG | 0.26
50 | ATTGACACGTGTAGGT | 0
51 | GAGAGCACGTGTCGGT | 0.01
52 | GGTGCCACGTGGTTTG | -0.13
53 | GTGATCACGTGTTTCT | 0.17
54 | GAGGCCACGTGCGGGG | -0.15
55 | AATGACACGTGTGGAA | 0.16
56 | AAGCGCACGTGGTCGG | -0.08
57 | ACGGTCACGTGGGAAT | 0.05
58 | TGCGCCACGTGGTGTG | -0.24
59 | AATGACACGTGGTAAG | 0.03
60 | AGGCGCACGTGCGGGC | -0.16
61 | TTGGGCACGTGCCTTT | -0.26
62 | TTGAGCACGTGAATGG | 0.21
63 | AGTTACACGTGTTTAA | 0.09
64 | TGCTTCACGTGCAAGG | 0.29
65 | AGGGCCACGTGCAGGG | -0.21
66 | TATGGCACGTGGGAAC | -0.07
67 | AGGCGCACGTGGTAGC | -0.11
68 | TAGGTCACGTGAAGTC | 0.4
69 | TGGCACACGTGGGAGG | 0

Row | Sequence | relative binding free energy [kcal/mol]
70 | GGGCTCACGTGTTCGT | 0.46
71 | GTGCTCACGTGGATCG | 0.36
72 | GGAGCCACGTGTAGGT | -0.08
73 | GGTAGCACGTGTGCTT | -0.09
74 | CTAGGCACGTGGGTAT | -0.19
75 | CGTGACACGTGTGTAG | 0.11
76 | TCTTCCACGTGGGTTT | 0.08
77 | AGTATCACGTGTGAGG | 0.21
78 | AGTAACACGTGTGGGC | 0.03
79 | TTGATCACGTGTGACG | 0.26
80 | GATAGCACGTGAGTTT | 0.33
81 | TCGATCACGTGGCGTG | 0.13
82 | TGTTACACGTGTGAGA | 0.18
83 | GTGTCCACGTGATGCG | 0.18
84 | GTGGGCACGTGTTTCA | -0.1
85 | TGGGTCACGTGTAAAT | 0.18
86 | TGAATCACGTGGTGCT | -0.03
87 | AGCGGCACGTGGGTGT | -0.27
88 | CTTATCACGTGGAGTG | 0.02
89 | GCGGTCACGTGGCAGT | 0.12
90 | TTATGCACGTGCATAT | -0.09
91 | CGTCTCACGTGTGGGG | 0.14
92 | CAGGGCACGTGGGGAT | -0.21

Row | Sequence | relative binding free energy [kcal/mol]
93 | TGTAGCACGTGTTTTA | -0.06
94 | GGAAGCACGTGGCGTA | 0.01
95 | AGAAGCACGTGTGTTG | -0.03
96 | GGTCGCACGTGTGGGG | -0.05
97 | ATGATCACGTGTTTCG | 0.04
98 | GACTTCACGTGTGTGG | 0.45
99 | CGGGTCACGTGATGAT | 0.28
100 | TTGTACACGTGTGTAT | 0.14
101 | GTTGCCACGTGAATGG | 0.11
102 | TCATACACGTGTGTAG | 0.05
103 | TATAGCACGTGTTGCG | 0.01
104 | GGGTACACGTGATTTA | 0.07
105 | GCGGTCACGTGTGCTG | 0.16
106 | TGTTTCACGTGAAGTC | 0.32
107 | AGTGTCACGTGCGGGC | -0.03
108 | GGGCGCACGTGGTTTG | 0.03
109 | TATTACACGTGTGCAG | 0.21
110 | GGAGGCACGTGGACAT | 0.03
111 | GTGGTCACGTGGAATT | 0.3
112 | CAGTTCACGTGGAGTT | 0.2
113 | TTAATCACGTGCGAGT | 0.22
114 | TAGGGCACGTGCTGGT | -0.14
115 | ATGAACACGTGTCAGT | 0.11
